In all, about 420,000 compounds went through this assay and about 50,000 (12%) were called active. Inconclusive results, whose numbers are uncertain, are shown with a selection of clear calls. Calls come from the whole dose curve; as a rule, active = well fitted inhibition curve with a large enough effect; inconclusive = small, poorly fitted or top-dose-only effect; inactive = flat fitted curve, though single readings scatter. No potency is given beside an inconclusive call; the fits are too rough.
Assay: qHTS for Inhibitors of human tyrosyl-DNA phosphodiesterase 1 (TDP1): qHTS in cells in presence of CPT; note: nearly all actives have a fitted effect of over 55% in size
Conditions: chicken DT40 Tdp1-/-;hTDP1 cells + 20 nM CPT, ATP luminescence, 48 h; activity change, negative = growth inhibition: at 46.2 µM (top of the series) unless noted
How it was run: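 Chicken DT40 Tdp1-/- cells complemented with human TDP1, 400 cells/well, exposed to compounds plus 20 nM camptothecin for at least 48 h at 37 C; viability read as ATP content by CellTiter-Glo luminescence.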
In the case of `Cc1cccc(NC(=O)Cn2c(=O)n3nc(CCn4nc(C)cc4C)nc3c3ccccc32)c1`, the Potency is reported as active: 17.8 µM.
For `Cc1ccccc1OCC(=O)OCC(=O)NC1CCCC1`, the “activity change, negative = growth inhibition” value was inactive: 7.38%.
In the case of `COc1ccc(C(=O)OCC(=O)Nc2ccc(OC)c(S(=O)(=O)N3CCCCC3)c2)cc1[N+](=O)[O-]`, the Potency is reported as inconclusive [inhibitor, single point].
In the case of `Cc1cccc(C(C)C)c1NC(=O)COC(=O)CN1C(=O)C2CC=CCC2C1=O` (stereo not drawn), the Potency is reported as inconclusive [inhibitor, single point].
For `COc1cc(CC(=O)N2CCN(S(=O)(=O)c3ccc(C(C)C)cc3)CC2)cc(OC)c1OC`, the Potency was active: 20.6 µM.
With `Cc1ccc(N(C(=O)Cn2nnc(-c3cccs3)n2)C(C(=O)NC2CCCC2)c2ccncc2)cc1` (stereo not drawn) the Potency was active: 23.1 µM.
In the case of `COc1ccc(C2CC(c3cccs3)=NN2C(=O)COC(=O)C2CCCCC2)cc1OC` (stereo not drawn), the Potency is reported as inconclusive [inhibitor, single point].
For `COc1ccc(NC(=O)c2cc(-c3cc(Cl)ccc3C)n[nH]2)c(OC)c1`, the Potency was inconclusive [inhibitor, single point].
In the case of `Cc1onc(-c2ccccc2)c1C(=O)N1CCN(Cc2ccc3c(c2)OCO3)CC1`, the Potency is reported as inconclusive [inhibitor, single point].
With `Cc1occc(=O)c1OC(=O)Nc1ccc(Cl)c(Cl)c1` the Potency was active: 2.91 µM.
In the case of `CC(Nc1ccc(Br)cc1)C(=O)NC(=O)NC1CCCCC1` (stereo not drawn), the Potency is reported as inconclusive [inhibitor, single point].
With `CCOC(=O)N1CCN(C(=S)NC(=O)c2ccc(F)c(F)c2)CC1` the Potency was inconclusive [inhibitor, single point].
For `COc1ccc(-c2cc3nc(NCc4ccc(C)cc4C)n(C)c(=O)c3s2)cc1OC`, the Potency was inconclusive [inhibitor, partial curve, poor fit].
In the case of `Cc1cc(OCC(=O)N(C)C)c2c(-c3ccccc3)cc(=O)oc2c1`, the Potency is reported as inconclusive [inhibitor, partial curve, poor fit].
For `COc1ccc(NC(C)=O)cc1NC(=O)c1cccc(S(=O)(=O)N2CCN(Cc3ccccc3)CC2)c1`, the Potency was inconclusive [inhibitor, single point].
In the case of `CN1CCN(C(c2ccccc2Cl)c2sc3nc(-c4ccco4)nn3c2O)CC1` (stereo not drawn), the “activity change, negative = growth inhibition” value is reported as inactive: 0.281%.
With `Cc1nc(Cc2nnc(SCC(=O)N3CC(=O)Nc4ccccc43)o2)cs1` the “activity change, negative = growth inhibition” value was inactive: -0.111%.
For `COC1=CC(=O)c2c(ccc3ncnc(N)c23)C1=O`, the Potency was active: 0.206 µM.
In the case of `COc1ccc(OCCN2CCC(C(=O)NC(c3ccsc3)c3ccccc3C)CC2)cc1` (stereo not drawn), the Potency is reported as inconclusive [inhibitor, single point].
With `O=C(Nc1cccc(Oc2ccccc2)c1)C1Cc2c(-c3cccc(F)c3)ccnc2O1` (stereo not drawn) the Potency was inconclusive [inhibitor, single point].
With `O=C(O)C1c2ccccc2C(=O)N(Cc2ccc(F)cc2)C1c1ccncc1` (stereo not drawn) the “activity change, negative = growth inhibition” value was inactive: 0.409%.
In the case of `Cc1cccc(NC(=O)c2ccc(C(=O)Nc3cccc(C)c3C)cc2)c1C`, the “activity change, negative = growth inhibition” value is reported as inactive: -20.1%.
For `O=C(NCCN1CCCCC1)Nc1ccccc1Cl`, the “activity change, negative = growth inhibition” value was inactive: -2.87%.
In the case of `Cc1ccc(Nc2c(-c3ccc(C)o3)nc3ncccn23)cc1`, the “activity change, negative = growth inhibition” value is reported as inactive: -8.97%.
For `CCCCOc1ccc(/C=C/C(=O)NCCc2nc3ccccc3[nH]2)cc1`, the Potency was inconclusive [inhibitor, partial curve].
In the case of `O=C(Nc1cccc(C(=O)Nc2ccccc2F)c1)c1ccccc1`, the Potency is reported as inconclusive [inhibitor, single point].
In the case of `Cc1cc(NC(=O)CN(C)CCOc2ccccc2)ccc1Br`, the Potency is reported as active: 18.4 µM.
In the case of `FCCCOc1ccc(-c2nccc(-c3ccc(F)cc3)n2)cc1`, the Potency is reported as inconclusive [inhibitor, single point].
With `Cc1ccc(CCNC(=O)C2COc3ccccc3C2)cc1` (stereo not drawn) the activity change, negative = growth inhibition was inconclusive: -34.7% [inhibitor].
With `COC(=O)Cc1c(C)c2ccc(OC(=O)c3ccccc3)cc2oc1=O` the activity change, negative = growth inhibition was inconclusive: -30.3% [inhibitor].
In the case of `Cc1cc(C)c(C)c(S(=O)(=O)NC2CCN(Cc3ccccc3)CC2)c1C`, the Potency is reported as inconclusive [inhibitor, single point].
With `COc1ccccc1NC(=O)CSc1nc2ccccc2c(=O)n1CC1CCCO1` (stereo not drawn) the Potency was inconclusive [inhibitor, single point].
For `O=C(O)c1ccc2c(=O)n3cc(C(=O)c4ccccc4O)cc(Cl)c3nc2c1`, the Potency was inconclusive [inhibitor, single point].
With `O=c1c2ccccc2nc(/C=C/c2ccc([N+](=O)[O-])o2)n1CCCO` the Potency was active: 0.58 µM.
For `CCCCOC(=O)Nc1ccccc1C(=O)OC`, the Potency was inconclusive [inhibitor, single point].
With `Cc1ccc(S(=O)(=O)N(C)C)cc1NC(=O)c1cc(-c2ccco2)nc2ccccc12` the Potency was active: 13 µM.
For `Cc1ccc(S(=O)(=O)NC(=O)Nc2ccc(N(C)C)cc2)cc1`, the Potency was active: 20.6 µM.
With `CCOc1cc(CNc2ccccc2)cc(Br)c1OCc1ccccc1F` the Potency was inconclusive [inhibitor, partial curve].
In the case of `COc1ccc(C(=O)c2ccc(Cl)c([N+](=O)[O-])c2)cc1`, the Potency is reported as active: 0.82 µM.
For `Cc1cc(C)nc(/N=C(\N)Nc2ccc(C)c([N+](=O)[O-])c2)n1`, the Potency was active: 10.3 µM.
In the case of `CC(=O)N1CCN(S(=O)(=O)c2cccc(C(=O)N(Cc3ccccc3)c3ccc(C)cc3)c2)CC1`, the Potency is reported as inconclusive [inhibitor, single point].
With `O=C(CCCn1c(=S)[nH]c2cc3c(cc2c1=O)OCO3)N1CCN(C2CCCCC2)CC1` the Potency was inconclusive [inhibitor, single point].
In the case of `Cc1ccnc(SCC(=O)Nc2sc3c(c2C#N)CCCC3)n1`, the Potency is reported as active: 3.26 µM.
In the case of `CC(C)CCN1C(=O)c2ccccc2C1c1nnnn1-c1ccc2c(c1)OCCO2` (stereo not drawn), the Potency is reported as active: 23.1 µM.
With `Cc1cc(C)cc(NC(=O)C2CCN(S(C)(=O)=O)CC2)c1` the Potency was inconclusive [inhibitor, single point].
With `CC(=O)N(C(C)=O)C1=C(C#N)C2(CCCCC2)Cc2ccccc21` the “activity change, negative = growth inhibition” value was inactive: -21.8%.
In the case of `O=C(O)c1nccnc1C(=O)Nc1ccccc1-c1ccccc1`, the “activity change, negative = growth inhibition” value is reported as inactive: 7.65%.
With `Cc1ccc(NC(=O)CCc2nnc3ccc(NCc4ccco4)nn23)cc1` the Potency was inconclusive [inhibitor, single point].
With `COc1ccc2c(c1)C(=O)Cc1ccccc1O2` the “activity change, negative = growth inhibition” value was inactive: -8.72%.
For `COc1cc(C2c3cc4c(cc3OC(NNC(N)=O)C2C)OCO4)cc(OC)c1OC` (stereo not drawn), the Potency was active: 1.3 µM.
With `COc1ccccc1CCNC(=O)c1cc(C2CC2)nc2c1cnn2C(C)C` the Potency was inconclusive [inhibitor, single point].
In the case of `COc1ccc(O)c(/C=N/Nc2nc(C)cc(-c3ccccc3)n2)c1`, the Potency is reported as inconclusive [inhibitor, single point].
In the case of `O=C(CC[C@H]1O[C@@H](n2cnc3c(NC(=O)c4ccccc4)ncnc32)[C@H](O)[C@@H]1O)N[C@@H](CO)c1ccccc1`, the “activity change, negative = growth inhibition” value is reported as inactive: -19.6%.
With `CCc1ccc(N(C(=O)c2csnn2)C(C(=O)NC(C)(C)C)c2cccnc2)cc1` (stereo not drawn) the “activity change, negative = growth inhibition” value was inactive: -3.96%.
With `CCc1nnc(NC(=O)C2Cc3ccccc3CN2S(=O)(=O)c2ccc(C)cc2)s1` (stereo not drawn) the Potency was inconclusive [inhibitor, partial curve].
With `COc1ccccc1CNS(=O)(=O)c1c(C(=O)N2CCC(C)CC2)c(C)n(C)c1C` the “activity change, negative = growth inhibition” value was inactive: -9.86%.
In the case of `COc1ccc(N(CC(=O)NCCOc2ccccc2)S(=O)(=O)c2ccc(C)cc2)cc1`, the Potency is reported as inconclusive [inhibitor, single point].
In the case of `O=C(CN(Cc1ccc(F)cc1)C(=O)C1CSC(=O)C1)NC1CCCCC1` (stereo not drawn), the “activity change, negative = growth inhibition” value is reported as inactive: -0.668%.
For `COc1cc(C(=O)N2CCCC(c3cc(C(=O)NCc4ccccc4)no3)C2)cc(OC)c1C` (stereo not drawn), the Potency was inconclusive [inhibitor, single point].
With `CCCc1nnc(NC(=O)C2CCN(C(=O)c3ccco3)CC2)s1` the “activity change, negative = growth inhibition” value was inactive: -3.84%.
For `COC(=O)C1CCN(C(=O)CC(NC(=O)C(F)(F)F)c2cccs2)CC1` (stereo not drawn), the “activity change, negative = growth inhibition” value was inactive: 7.68%.
In the case of `CCOCCOCN(C#N)c1nc(OC)nc(N(C)C)n1`, the “activity change, negative = growth inhibition” value is reported as inactive: 10.4%.
For `Cc1nc(C(=O)NNC(=O)c2c(-c3c(Cl)cccc3Cl)noc2C)cs1`, the Potency was inconclusive [inhibitor, single point].
For `NC(=O)C1CC(O)CN1c1nc(CN2CCOCC2)nc2scc(-c3ccccc3)c12` (stereo not drawn), the “activity change, negative = growth inhibition” value was inactive: 1.3%.
With `COc1nc(-c2ccc(Cl)cc2)ccc1-c1noc(-c2ccco2)n1` the Potency was inconclusive [inhibitor, single point].
With `CCOC(=O)c1c(C)nc2sc3c(c2c1-c1ccc(OC)cc1)NC(c1ccc(OC)cc1)NC3=O` (stereo not drawn) the Potency was inconclusive [inhibitor, partial curve, poor fit].
In the case of `CC(C)Cc1ccc(/C=C/C(=O)NC2CC2)cc1`, the “activity change, negative = growth inhibition” value is reported as inactive: -22.4%.
With `CC(=O)c1cccc(NC(=O)N2CCC(C(=O)c3ccc(F)cc3)CC2)c1` the Potency was inconclusive [inhibitor, single point].
With `O=C1CN(C(=O)COC(=O)c2ccccc2O)c2ccccc2N1` the “activity change, negative = growth inhibition” value was inactive: 2.95%.
For `COc1ccc(C)cc1NC(=O)CSc1nc(=O)n(Cc2cccnc2)c2c1CCC2`, the Potency was inconclusive [inhibitor, single point].
With `CCCCCN1C(C(=O)c2ccccc2)=C(NC(=O)c2ccc(OC)c(OC)c2)c2ccccc2S1(=O)=O` the Potency was active: 20.6 µM.
For `CC(C)C(=O)N[C@H]1CCC2C3CC=C4C[C@@H](O)CC[C@]4(C)C3CC[C@@]21C` (stereo partly drawn), the “activity change, negative = growth inhibition” value was inactive: -29.3%.
With `O=C(CSc1ccc2nnc(-c3ccc(F)cc3)n2n1)N1CCCc2ccccc21` the Potency was active: 18.4 µM.

Source: PubChem BioAssay AID686979 (National Center for Advancing Translational Sciences (NCATS), 2013)
% is set by controls: 0 for no effect and ±100 for the full control effect; potency is the fitted concentration of half-maximal effect; tags give direction and shape of the fitted curve.
